Assay results: PubChem BioAssay (NCI)
Values joined by “and” are separate entries in the source; they are usually repeats but may differ in a detail not shown here. Equal values may be shown once.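 Dose response: 5 concentrations. Exposure: 48 h. Format: 96-well plates. Endpoint: linear interpolation; highest concentration if not reached. The concentration for 50% growth inhibition is given as GI50. TGI marks complete inhibition of growth.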

Tested on: NCI-H322M lung
Assay: inhibition of tumour cell growth, NCI panel, 48 h

Point of comparison: `O=C1OI(C#Cc2ccccc2)c2ccccc21`, TGI 27.2 µM. Against it:
- O=[N+]([O-])C1C2C=CC(C2)[C@H]1c1ccc(Cl)cc1Cl (some centres not stated) — higher, > 100 µM
- CCN(CC)CCOc1ccc(/C=C2\CC3C4CC=C5C[C@@H](OC(C)=O)CC[C@]5(C)C4CC[C@]3(C)C2=O)cc1OC (some centres not stated) — within 1.5-fold, 19.9 µM
- CC(=O)CC1(C)OC(N)=C(C#N)C1(C#N)C#N (configuration not stated) — higher, > 100 µM
- Cc1ccc(S(=O)(=O)N/N=C2\C3CC4CC(C3)C2C4)cc1 (configuration not stated) — higher, > 100 µM
- CCCCCCCCCCCCCCCCS(=O)(=O)c1ccc(NN)cc1 — not separable, > 10 µM
- O=C(O)C1C(C(=O)O)C2(Cl)C(Cl)=C(Cl)C1(Cl)C2(Cl)Cl.[Cd] (configuration not stated) — within 1.5-fold, 35 µM
- Fc1c[c-]c(-c2ccccn2)c(F)c1.[CH3-].[Pt+2].c1ccc(P(C[PH+](c2ccccc2)c2ccccc2)c2ccccc2)cc1 — 6.2-fold lower, 4.4 µM
- NC(=S)N/N=C\CC(O)(C(F)(F)F)C(F)(F)F — not separable, > 10 µM
- CCOC1=C2NC(Cc3ccc(F)cc3)=NC2C(=O)c2ccccc21 (configuration not stated) — higher, > 100 µM
- CCN(CC)CCN(C)CCc1ccc(Br)cc1 — higher, > 100 µM
- O=S(=O)(O)C1CCC(O)C2[N-]CCCC21.O=S(=O)(O)C1CCC(O)C2[N-]CCCC21.[Zn+2] (configuration not stated) — higher, > 100 µM
- C[C@@H]1C/C=C\C(=O)O[C@H](/C=C/C#C/C=C/C(C)(C)[C@@H](O)c2cccc(O)c2Br)[C@@H](C)/C=C/[C@H](C)C[C@H](OC(N)=O)C1 — within 1.5-fold, 19.7 µM
- CC(C)CCCC(C)[C@H]1CC[C@H]2N=C(Nc3ccccc3)CCC[C@]12C (some centres not stated) — within 1.5-fold, 34.6 µM
- c1ccc([P+](c2ccccc2)(c2ccccc2)c2ccc([P+](c3ccccc3)(c3ccccc3)c3ccccc3)cc2)cc1 — higher, > 100 µM
- CCCCCCOc1ccc(C(=N)N(CCCC)CCCC)c2ccccc12 — 9.8-fold lower, 2.77 µM
- C=CC(=O)Nc1cccc(Nc2nc(Nc3ccc(OCCOC(F)F)cc3)ncc2F)c1 — higher, > 100 µM
- CC(=O)NC1=C(NCC(C)C)C(=O)c2ccccc2C1=O — higher, > 100 µM
- COc1ccc(/C=C/C(=O)C(C)(C)Br)cc1 — 2.2-fold higher, 61 µM
- O=C1CSc2nnc(CCCCCCCCc3nnc4n3NC(=O)CS4)n2N1 — higher, > 100 µM
- O=S1(=O)CCN(c2ccccc2CC(c2c[nH]c3ccccc23)c2c[nH]c3ccccc23)CC1 — higher, > 100 µM
- CC1(C)C2CCC13C(=O)C1OC3(C2)C2C(=O)c3c(O)cccc3C(=O)C12 (configuration not stated) — within 1.5-fold, 22.4 µM
- COC(=O)[C@H](Cc1ccccc1)NC(=O)c1csc([C@@H](C[C@H](C(C)C)N(C)C(=O)[C@@H](NC(=O)[C@H]2CCCN2C)C2CC2)OC(C)=O)n1 — higher, > 33.3 µM
- O=[N+]([O-])/C=C/c1cn(CCCCCn2cc(/C=C/[N+](=O)[O-])c3ccccc32)c2ccccc12 — 3.3-fold higher, 89.2 µM
- CN(C)CCCC1(c2ccc(F)cc2)OCc2cc(-c3cncc4ccccc34)ccc21 (configuration not stated) — 1.9-fold lower, 14.1 µM
- Cc1ccc(-n2c3c(c4c(CN5CCOCC5)c(O)ccc42)CCc2ccccc2C3=O)cc1 — higher, > 100 µM
- COC(=O)/C=C/c1ccc2c(c1)CC1(Cc3ccccc3C1)C2 — higher, > 100 µM
- CCOC(=O)/C(C#N)=C/N(CC)/N=C/c1ccccc1 — higher, > 100 µM
- COc1ccc2[nH]c(-c3ccccc3)cc2c1 — higher, > 100 µM
- C/C(=N\Nc1ccccc1)C(CN(C)C)C(c1ccccc1)c1c(O)c2ccccc2oc1=O (configuration not stated) — higher, > 100 µM
- CC[P+]1(CC)CCCC1 — higher, > 100 µM
- O=C(Nc1ccc(Cl)cc1)Nc1ccccc1CNc1nc(Nc2ccc(OCCN3CCCC3)cc2)ncc1Cl — 4.3-fold lower, 6.34 µM
- CC(C)(C)c1ccc(-c2nnc(-c3cc(C#N)cc(-c4nnc(-c5ccc(C(C)(C)C)cc5)o4)c3)o2)cc1 — higher, > 100 µM
- Cc1n(Cc2ccc3ccccc3c2)c(Cl)c(Cl)[n+]1Cc1ccc2ccccc2c1 — 3.6-fold lower, 7.65 µM
- CC1(C)CC(=O)c2c(oc3cc(O)c(O)cc23)C1 — higher, > 100 µM
- O=C(c1ccco1)C1CC(c2ccc3ccccc3c2O)=NN1c1ccc([N+](=O)[O-])cc1[N+](=O)[O-] (configuration not stated) — higher, > 100 µM
- NS(=O)(=O)c1ccc(NC(=O)c2cccn3c(=O)c4ccccc4nc23)cc1 — higher, > 100 µM
- C/C(=N\n1c(N)c(C#N)c(-c2ccc(Cl)cc2)c(C#N)c1=O)c1ccncc1 — higher, > 100 µM
- NC(=O)C(=O)n1ncc(Cl)c(Cl)c1=O — higher, > 89.7 µM
- COc1ccc(-c2c3ccccc3c(-c3ccc(OCCCCCBr)cc3)c3ccccc23)cc1 — higher, > 100 µM
- COc1ccc(CC2=NCCc3cc(OC)c(OC)cc32)cc1Br — higher, > 100 µM
- COC(=O)CC(NC(=O)OCc1ccccc1)C(C(=O)OCc1ccccc1)C1(C)OCCO1 (configuration not stated) — higher, > 100 µM
- Cc1cc(S(=O)(=O)O)c(NC(=O)c2oc3cc(O)ccc3c(=O)c2C)cc1Cl — higher, > 100 µM
- CC(c1ccccc1)N1CC(C)(c2ccccc2)N(O)C(c2ccccc2)C1C (configuration not stated) — 2.5-fold higher, 68.8 µM
- Cc1ccccc1NC(=O)C(=O)CC(=O)c1ccc([N+](=O)[O-])cc1 — higher, > 100 µM
- COc1ccc(-c2nc(-c3cnccn3)n(C3OC(CO)C(O)C(O)C3O)n2)cc1 (configuration not stated) — higher, > 100 µM

Point of comparison: `CN(C)CCCC1(c2ccc(F)cc2)OCc2cc(-c3cncc4ccccc34)ccc21` (configuration not stated), GI50 3.65 µM. Against it:
- CCN(CC)CCOc1ccc(/C=C2\CC3C4CC=C5C[C@@H](OC(C)=O)CC[C@]5(C)C4CC[C@]3(C)C2=O)cc1OC (some centres not stated) — 2.2-fold higher, 7.86 µM
- O=C(O)C1C(C(=O)O)C2(Cl)C(Cl)=C(Cl)C1(Cl)C2(Cl)Cl.[Cd] (configuration not stated) — 4.8-fold higher, 17.5 µM
- Fc1c[c-]c(-c2ccccn2)c(F)c1.[CH3-].[Pt+2].c1ccc(P(C[PH+](c2ccccc2)c2ccccc2)c2ccccc2)cc1 — 3-fold lower, 1.22 µM
- C[C@@H]1C/C=C\C(=O)O[C@H](/C=C/C#C/C=C/C(C)(C)[C@@H](O)c2cccc(O)c2Br)[C@@H](C)/C=C/[C@H](C)C[C@H](OC(N)=O)C1 — 47-fold lower, 0.0772 µM
- CCCCCCOc1ccc(C(=N)N(CCCC)CCCC)c2ccccc12 — 2.6-fold lower, 1.4 µM
- C=CC(=O)Nc1cccc(Nc2nc(Nc3ccc(OCCOC(F)F)cc3)ncc2F)c1 — 2.7-fold lower, 1.33 µM
- CC1(C)C2CCC13C(=O)C1OC3(C2)C2C(=O)c3c(O)cccc3C(=O)C12 (configuration not stated) — 2.8-fold higher, 10.1 µM
- COC(=O)[C@H](Cc1ccccc1)NC(=O)c1csc([C@@H](C[C@H](C(C)C)N(C)C(=O)[C@@H](NC(=O)[C@H]2CCCN2C)C2CC2)OC(C)=O)n1 — 1.7-fold lower, 2.18 µM
- Cc1ccc(-n2c3c(c4c(CN5CCOCC5)c(O)ccc42)CCc2ccccc2C3=O)cc1 — higher, > 100 µM
- COc1ccc2[nH]c(-c3ccccc3)cc2c1 — higher, > 100 µM
- O=C(Nc1ccc(Cl)cc1)Nc1ccccc1CNc1nc(Nc2ccc(OCCN3CCCC3)cc2)ncc1Cl — 2.3-fold lower, 1.56 µM
- Cc1n(Cc2ccc3ccccc3c2)c(Cl)c(Cl)[n+]1Cc1ccc2ccccc2c1 — within 1.5-fold, 2.47 µM
- C/C(=N\n1c(N)c(C#N)c(-c2ccc(Cl)cc2)c(C#N)c1=O)c1ccncc1 — within 1.5-fold, 4.73 µM

For `CN(C)CCCN1c2ccccc2Sc2ccc(Cl)cc21`, the GI50 was 6.3 µM and 3.22 µM.

In the case of `CN(C)CCCN1c2ccccc2Sc2ccc(Cl)cc21`, the TGI is reported as 19.5 µM and 13.3 µM.
